In all, about 350,000 compounds went through this assay and about 31,000 (8.9%) were called active. Inconclusive means that the source gave no clear call. Such entries were picked first, then a sample of the others. Calls come from the whole dose curve; as a rule, active = well fitted inhibition curve with a large enough effect; inconclusive = small, poorly fitted or top-dose-only effect; inactive = no such curve, though single readings can be large or run the other way. Potencies of inconclusive entries are doubtful fits and often do not repeat.
The molecules below were run against Histone-lysine N-methyltransferase EHMT2 (Homo sapiens) (UniProt Q96KQ7) (assay: qHTS Assay for Inhibitors of Histone Lysine Methyltransferase G9a). Conditions: G9a H3K9 monomethylation, AlphaScreen, 2 h; activity, negative = inhibition: at 59 µM (top of the series) unless noted.
UniProt Q96KQ7, sequence (Q96KQ7 whole entry, looked up): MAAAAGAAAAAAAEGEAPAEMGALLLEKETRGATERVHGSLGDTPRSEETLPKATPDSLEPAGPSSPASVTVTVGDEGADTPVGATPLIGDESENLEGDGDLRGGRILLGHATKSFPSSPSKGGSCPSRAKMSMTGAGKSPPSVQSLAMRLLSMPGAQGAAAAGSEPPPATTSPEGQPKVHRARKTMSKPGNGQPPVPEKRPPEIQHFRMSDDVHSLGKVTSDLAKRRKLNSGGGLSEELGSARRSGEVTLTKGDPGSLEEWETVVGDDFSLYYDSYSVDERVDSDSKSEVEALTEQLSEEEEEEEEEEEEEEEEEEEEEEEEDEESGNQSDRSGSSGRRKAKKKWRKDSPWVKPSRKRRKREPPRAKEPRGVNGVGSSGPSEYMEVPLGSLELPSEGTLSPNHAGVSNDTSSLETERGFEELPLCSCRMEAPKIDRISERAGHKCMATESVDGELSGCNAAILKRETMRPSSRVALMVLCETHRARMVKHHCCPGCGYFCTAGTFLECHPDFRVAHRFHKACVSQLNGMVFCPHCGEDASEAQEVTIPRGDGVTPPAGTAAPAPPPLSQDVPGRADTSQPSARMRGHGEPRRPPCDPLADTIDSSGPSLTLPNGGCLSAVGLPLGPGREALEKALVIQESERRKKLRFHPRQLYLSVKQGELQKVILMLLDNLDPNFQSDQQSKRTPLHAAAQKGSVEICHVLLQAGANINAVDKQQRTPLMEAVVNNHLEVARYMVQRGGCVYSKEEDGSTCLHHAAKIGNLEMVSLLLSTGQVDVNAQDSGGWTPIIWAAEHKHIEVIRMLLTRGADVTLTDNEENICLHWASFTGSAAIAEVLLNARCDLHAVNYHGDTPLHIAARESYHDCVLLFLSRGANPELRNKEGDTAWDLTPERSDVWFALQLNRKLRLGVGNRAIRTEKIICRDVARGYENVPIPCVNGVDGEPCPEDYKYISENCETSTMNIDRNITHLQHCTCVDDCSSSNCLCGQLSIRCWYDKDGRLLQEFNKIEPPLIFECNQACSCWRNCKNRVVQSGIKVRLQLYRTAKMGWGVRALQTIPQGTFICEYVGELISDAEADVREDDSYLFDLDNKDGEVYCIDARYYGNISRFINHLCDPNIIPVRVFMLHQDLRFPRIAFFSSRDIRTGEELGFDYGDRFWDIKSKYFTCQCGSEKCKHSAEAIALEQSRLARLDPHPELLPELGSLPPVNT
In short: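 Readings reflect AlphaScreen signal from monomethyl-H3K9 antibody detection. HMT at 20 nM; substrate b-H3K9 500 nM; cofactor SAM 20 uM; 2 h RT reaction; compounds tested as titrations in qHTS with 15 min preincubation.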
% is set by controls: 0 for no effect and ±100 for the full control effect; potency is the fitted concentration of half-maximal effect; tags give direction and shape of the fitted curve.
Note: nearly all actives have a fitted effect of over 75% in size.

SMILES	Potency	activity, negative = inhibition
O=c1cc(-c2ccccc2)nc(SCc2nc(-c3ccc(C(F)(F)F)cc3)no2)[nH]1	inactive	–
COc1ccc(NC(=O)COC(=O)C23CCC(=O)N2c2ccccc2S3)cc1 (stereo unspecified)	inconclusive: 89.1 µM [inhibitor, partial curve, poor fit]	–
Cc1c(CNCCc2ccccc2Cl)c(C(=O)O)c(C)n1-c1ccccc1	inconclusive: 89.1 µM [inhibitor, single point]	–
CCN1C(=O)[C@H]2[C@@H](c3ccc(-c4cccc(Cl)c4)cc3)N3CCCC[C@@]3(C(=O)OC)[C@H]2C1=O	–	inactive: -19.9% [at 2.33 µM]
COCCN(CC(=O)NCc1ccccc1)C(=O)CCC(=O)Nc1ccccn1	inconclusive: 79.4 µM [inhibitor, single point]	–
O=C(Cn1ccn(-c2cccc(Cl)c2)c(=O)c1=O)NCCc1ccccc1	inconclusive: 7.94 µM [inhibitor, partial curve, poor fit]	–
Cc1c(NC(=O)/C(C#N)=C/C2CC=CCC2)c(=O)n(-c2ccccc2)n1C (stereo unspecified)	inconclusive: 20 µM [inhibitor, partial curve, poor fit]	–
COc1ccc(-c2nc3c4ccccc4ccn3c2CN2CCCCC2)cc1OC	inconclusive: 44.7 µM [inhibitor, single point]	–
Cc1cc(C)c(S(=O)(=O)Nc2ccc[nH]c2=O)c(C)c1	active: 8.91 µM	–
O=C(CN1C2=NCCN2c2ccccc21)N1CCOCC1	inactive	–
CC/C(=N\NC(=S)Nc1ccc(OC)cc1)c1ccc(OC(F)F)cc1	active: 39.8 µM	–
CCN(CC)S(=O)(=O)c1ccc(N2CCOCC2)c(NC(=O)c2c3c(nc4ccccc24)CCC3)c1	inactive	–
CCn1cc(C(=O)OCC(=O)N(C)Cc2ccccc2)c(=O)c2ccc(C)nc21	inactive	–
COc1ccc(CNC(=O)Cn2c(=O)oc3cc(S(=O)(=O)N4CCCCCC4)ccc32)cc1	inactive	–
C1CN(CCN2CCOCC2)CCN1	inconclusive: 79.4 µM [inhibitor, single point]	–
COc1ccc(N2CCN(C(=O)CCc3c(C)nc4c(-c5ccccc5)c(C)nn4c3C)CC2)cc1	inconclusive: 10 µM [inhibitor, partial curve, poor fit]	–
CC(C)C(=O)Nc1ccc(C(=O)N/N=C/C2CC3C=CC2C3)cc1 (stereo unspecified)	inactive	–
O=S(=O)(NCC(c1ccco1)S(=O)(=O)c1ccccc1)c1ccccc1 (stereo unspecified)	inconclusive: 3.55 µM [inhibitor, single point]	–
CSCCCNC(=S)N1CCc2ccccc2C1	inconclusive: 56.2 µM [inhibitor, partial curve, poor fit]	–
COc1ccc2nc(C)cc(SCC(NC(C)=O)C(=O)OC(C)C)c2c1 (stereo unspecified)	active: 39.8 µM	–
CC(=O)c1c(C)[nH]c(C(=O)OCC(=O)N(CC(C)C)C2CCS(=O)(=O)C2)c1C (stereo unspecified)	inactive	–
COc1ccccc1CNC(=O)CCc1c(C)c2ccc(OC)c(C)c2oc1=O	inconclusive: 35.5 µM [inhibitor, single point]	–
CCNc1nc(Cl)nc(-c2cn(-c3ccccc3)c3ccccc23)n1	active: 70.8 µM	–
O=c1[nH][nH]c(-c2ccccc2)c1C=Nc1ccc(F)cc1F	inconclusive: 39.8 µM [inhibitor, full curve]	–

SMILES	Potency	activity, negative = inhibition
CCOC(=O)c1c(C)[nH]c(C)c1C(=O)Cn1nnc(-c2ccccc2C)n1	inactive	–
CC(C)[C@H](Nc1ccc(S(=O)(=O)N2CCOCC2)cc1[N+](=O)[O-])C(=O)OCC(=O)N(C(C)C)C(C)C	inconclusive: 44.7 µM [inhibitor, partial curve, poor fit]	–
CCC(Sc1nc(C)cc(C)n1)C(=O)O (stereo unspecified)	inconclusive: 79.4 µM [inhibitor, partial curve, poor fit]	–
O=C(Cc1ccc([N+](=O)[O-])cc1)N/N=C/c1ccco1	inconclusive: 44.7 µM [inhibitor, partial curve, poor fit]	–
COc1ccc2c(c1)cc(CNc1ccc(OC)c(OC)c1)c(=O)n2CC(=O)Nc1ccc(F)cc1	active: 2.82 µM	–
COc1ccccc1N(CC(=O)NC1CCCCC1)C(=O)CNC(=O)c1cccs1	inactive	–
CCOc1ccccc1NC(=O)c1c(NC(=O)CCC(=O)O)sc2c1CCCCC2	active: 25.1 µM	–
CCCCn1c(=O)n(CC(=O)NCc2ccc(C)cc2)c(=O)c2c1nc(CO)n2CCC	–	inconclusive: -62.5% [inhibitor] [at 0.0925 µM]
CCn1c(=O)c2sccc2n(Cc2cccc(C)c2)c1=O	inactive	–
N=C1C2=C3Sc4ccccc4N3CCCC2=NN1c1cccc(S(=O)(=O)O)c1	inconclusive: 35.5 µM [inhibitor, single point]	–
CN(CC(=O)Nc1cccc(Cl)c1)S(=O)(=O)c1ccc2[nH]c3c(c2c1)CCCC3	inconclusive: 14.1 µM [inhibitor, partial curve]	–
CC(C)(Oc1ccc(Cl)cc1)C(=O)N/N=C/c1cn[nH]c1-c1ccccc1	inactive	–
NC(=O)c1ccc(NC(=O)CSC2=Nc3ccccc3C3CC=NN23)cc1 (stereo unspecified)	active: 12.6 µM	–
O=C(COc1ccc(F)cc1)c1c(O)cc(O)cc1O	inconclusive: 35.5 µM [inhibitor, partial curve]	–
S=c1[nH]nc(-c2ccc(Br)cc2)n1-c1ccc(Br)cc1	active: 8.91 µM	–
CC(=O)c1cccc(NC(=O)CN(c2ccc(C)cc2)S(=O)(=O)c2cccc3nonc23)c1	inconclusive: 44.7 µM [inhibitor, partial curve, poor fit]	–
CC(=C/c1ccco1)/C=N/NC(=O)CSc1nnc(SCc2ccc(C)cc2)s1	inconclusive: 39.8 µM [inhibitor, single point]	–
CCOC(=O)c1c(-c2ccccc2)oc2ccc(OCC(O)CN(C)C)cc12 (stereo unspecified)	inactive	–
COc1ccc(CN(C)CC(=O)NC(C)c2ccccc2)c(OC)c1 (stereo unspecified)	inconclusive: 50.1 µM [inhibitor, single point]	–
CC(OC(=O)C1CCN(S(=O)(=O)c2ccc(F)cc2)CC1)C(=O)NC1CCCCC1C (stereo unspecified)	inactive	–
Cc1cc(N2CCN(C)CC2)nc2ccc(NC(=O)Nc3ccccc3Br)cc12	inconclusive: 10 µM [inhibitor, partial curve, poor fit]	–
CC(C)=CC(=O)OCC(=O)NC1CCCc2ccccc21 (stereo unspecified)	inactive	–
COc1cc(/C=C(\C#N)C(=O)NCC2CCCO2)ccc1OCCC(C)C (stereo unspecified)	inconclusive: 89.1 µM [inhibitor, single point]	–
CCOc1ccc(C2OC34CCCCC3C(C#N)(C#N)C2(C#N)C(=N)O4)cc1OC (stereo unspecified)	inconclusive: 5.62 µM [inhibitor, single point]	–

SMILES	Potency	activity, negative = inhibition
COc1cc(/C=C2/CC/C(=C/c3ccc(O)c(OC)c3)C2=O)ccc1O	–	inconclusive: -70.6% [inhibitor]
Clc1cccc2c1Sc1ccccc1CC2N1CCNCC1 (stereo unspecified)	inconclusive: 28.2 µM [inhibitor, partial curve, poor fit]	–
CC1(C)OC(=O)C(C(c2ccccc2)C(C#N)C(N)=O)=C(O)O1 (stereo unspecified)	inconclusive: 2.51 µM [inhibitor, full curve]	–
CCOC(=O)C1CCN(c2c(C(=O)c3ccc(OCC)cc3)cnc3ccc(OC)cc23)CC1	inconclusive: 7.08 µM [inhibitor, partial curve]	–
CCCCn1c(=O)[nH]c(=O)c2c1nc(-c1ccc(OC)c(Br)c1)n2CC(C)C	inconclusive: 89.1 µM [inhibitor, single point]	–
CCOC(=O)C1=C(C)OC(N)=C(C#N)C1c1cc2c(cc1[N+](=O)[O-])OCO2 (stereo unspecified)	active: 50.1 µM	–
Cc1c(C(=O)OCC(=O)NCCc2ccc(S(N)(=O)=O)cc2)oc2ccccc12	–	inactive: -9.68% [at 12.7 µM]
CCOC(=O)c1cccc(NC(=O)CC(c2cc(OC)c(OC)c(OC)c2)N2Cc3ccccc3C2=O)c1 (stereo unspecified)	inactive	–
O=[N+]([O-])c1ccc(CNc2cccc(F)c2)s1	active: 50.1 µM	–
Cc1cc(N/N=C(/CCC(=O)O)C(=O)O)nc2ccccc12	active: 3.16 µM	–
CCOC(=O)N1CCN(C(=O)CSc2nnc(-c3cccc(OC)c3)o2)CC1	active: 50.1 µM	–
CC(=O)N(c1ccc(C)cc1)S(=O)(=O)c1ccc(Cl)cc1	inactive	–
CCN(CC)S(=O)(=O)c1cc(C(=O)OCC(=O)NC(=O)c2cccn2C)ccc1C	inconclusive: 2.24 µM [inhibitor, full curve]	–
COc1ccc(C)cc1S(=O)(=O)N(CC(=O)NC1CCCC1)c1ccc(F)cc1	inactive	–
CN(CCOCCOc1ccc(Cl)cc1Br)Cc1ccccc1	inactive	–
CCOc1ccc(NC(=O)CN2CCN(Cc3ccccc3)S2(=O)=O)cc1	inconclusive: 28.2 µM [inhibitor, single point]	–
COc1ccc(CCNC(=O)CCC(=O)NC2CCCCC2)cc1OC	inactive	–
CCN(CC)CCCn1c2c(c(SCC(=O)Nc3nc(C)cs3)nc1=O)CCC2	inconclusive: 44.7 µM [inhibitor, partial curve, poor fit]	–
CCN(c1ccccc1)S(=O)(=O)c1ccc2[nH]cc(C(=O)NC3CCCCC3)c(=O)c2c1	inconclusive: 14.1 µM [inhibitor, partial curve, poor fit]	–
Cc1nnc(SCc2cccc(Cl)c2)n(N)c1=O	inactive	–
COC(=O)c1ccc(S(=O)(=O)N2CCCCCC2)cc1	inactive	–
CCC(=O)Nc1cccc(C(=O)/C=C/c2ccc(F)cc2)c1	inconclusive: 50.1 µM [inhibitor, partial curve, poor fit]	–
COc1ccc(N2CC(C(=O)N[C@@H](CC(C)C)C(=O)NC3CCCC3)CC2=O)cc1 (stereo partly specified)	inconclusive: 79.4 µM [inhibitor, single point]	–

— PubChem BioAssay AID504332 (National Center for Advancing Translational Sciences (NCATS), 2011)
